Results: the supplement of paper PMC10126150
Sequences with one replicate were seen in a single cluster, so their values are uncertain.

system: ATP; experiment: switch fluorescence ratio, 500 uM ATP over buffer (Cy3 cluster intensity, sum of 5 cycles each) (fold (ratio)); higher = stronger signal-on switching upon ATP binding; sequences stand for … in TCGTCGGCAGCGTCAGATGTGTATAAGAGACAGTTTTTTTTTTTTTTTTTTTTTTTTT…TC; details: aptamer strand: ATP DNA aptamer (quencher-CACCTGGGGGAGTATTGCGGAGGAAGG + anchor), 100 nM annealed; ATP concentration: 500 uM; one replicate
How it was run: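 Five buffer/ATP imaging cycles were run on Cy3-labelled switching-strand clusters on a modified Illumina MiSeq flow-cell, with NaOH stripping and re-annealing between cycles. In each cycle, clusters annealed to 100 nM quencher-labelled ATP aptamer were imaged in selection buffer, then after 15 min with 500 uM ATP at 22 °C. Per cluster, the fluorescence ratio is summed target-cycle over summed buffer-cycle Cy3 intensity, averaged per switch-domain sequence. Only clusters within 100-1000 RFU were kept.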
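Further: ATP exposure 15 min at 22 °C before imaging.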

| Sequence | switch fluorescence ratio |
| --- | --- |
| ACTCCCCTGA | 2.1 |
| GAAGGAGTAG | 1.03 |
| ATAGACTCTT | 0.994 |
| AAACCCGATC | 1.02 |
| GGTCTAGGCT | 0.969 |
| TAGGTAATGA | 1.04 |
| GCAAAATTTT | 0.949 |
| TTCTGACAGG | 1.02 |
| CTAAGATCGT | 0.978 |
| ATTTGCTCAC | 1.06 |
| GAATCCAGGG | 1.16 |
| GTGGGCAACA | 1 |
| CCGTATTGGA | 0.993 |
| GCCTCGTTAG | 0.97 |
| TTTTCGCTAC | 3.89 |
| AGGTTCATGA | 1.02 |
| TCTCAAGACT | 1.09 |
| GTACGGAAGG | 1.11 |
| AACAGGTCAT | 0.973 |
| GGGGTATAC | 3.07 |
| ATCAGAAGCC | 1.03 |
| TACATGTACC | 1.2 |
| CCCAGACTTC | 1.04 |

| Sequence | switch fluorescence ratio |
| --- | --- |
| AACGGTAGAC | 1.14 |
| TAGATGGTA | 1.02 |
| TAATGGGAA | 1.02 |
| CCTTATTGTA | 1.01 |
| ACCCTAGAGA | 1.02 |
| AGAATGATTC | 1.01 |
| GGGGGTGCG | 0.971 |
| CGTGAGTTAA | 1.01 |
| ACCAGAATCA | 1.05 |
| GGGGAGCGAA | 1.01 |
| GTCTCATCAG | 1.01 |
| TAAAAGAGT | 0.975 |
| AAGAACAGCG | 1.03 |
| AACTATCTTA | 0.996 |
| CTGTCTGGCC | 1.04 |
| GACGGGCTAC | 1.92 |
| GCGACTCTAG | 1 |
| ATCTGGGTAA | 0.963 |
| TATAGTAAAT | 0.948 |
| GAGGTAGTT | 0.992 |
| ATGACCGTC | 1.12 |
| TGTGAAAATC | 0.93 |
| CCGCGTGAAC | 4.18 |

| Sequence | switch fluorescence ratio |
| --- | --- |
| CACAATAGTC | 1.63 |
| TGCCATATAG | 1.01 |
| GCTTTAGGAC | 1.03 |
| GCATTGAGCG | 0.98 |
| GTATAGATAC | 1.04 |
| ATTGTACTTG | 1.53 |
| TAACTATGAA | 0.949 |
| CGGCGGACCC | 1.27 |
| TTAGGTCTCC | 1 |
| ATGACTTAGC | 1.05 |
| TCCTCACGGA | 1.04 |
| GAGCCAATTG | 0.979 |
| TCTGGCAGGT | 1.01 |
| TCGTACGTAT | 1.02 |
| GCAGAGTGAG | 0.968 |
| TGTGGTGGTT | 0.973 |
| GGAAGGCCTT | 0.95 |
| ATACGCCCTT | 1.15 |
| ATGGTGCTCG | 1.1 |
| TGTCTACTAT | 0.977 |
| GGGCTCAGAC | 1.02 |
| TCCGCCTAGG | 1.15 |
| AGTTGGGCGC | 1.05 |

| Sequence | switch fluorescence ratio |
| --- | --- |
| AGTGGTGTTA | 0.968 |
| TCGTCCGCGG | 4.2 |
| ACGGAACGCC | 1.09 |
| TGAGAGGTCA | 1 |
| GCTCGGCCCA | 1.01 |
| TTCCGATGTT | 1.28 |
| GAGGTAAATC | 1.03 |
| AGCATGTGAG | 0.961 |
| AGGCCCCGGA | 1.03 |
| GGGATCCCGT | 0.994 |
| AGTGTTGTCC | 1.01 |
| TGCACGTTCT | 1.04 |
| AATTAAAGCA | 1.09 |
| GCTCGAGTTC | 1.01 |
| CAAAAATTTC | 1.01 |
| TCGTGGATAG | 0.977 |
| TTCGGTGGAT | 0.975 |
| TCTCTCAGAA | 0.99 |
| TTGCGTGTCG | 1 |
| ACGAGGCCTC | 0.987 |
| ATAACAACTC | 1 |
| ATGTCGCGTG | 0.987 |
| AACGTGATTT | 1.05 |

| Sequence | switch fluorescence ratio |
| --- | --- |
| AGACCACCAC | 1.16 |
| TGACTGCGCG | 1.05 |
| TCGCAATTTA | 4.04 |
| ACACGGTCTC | 0.971 |
| TTAGTGAGGA | 1.05 |
| GCATTATTAG | 0.989 |
| TTTCAATT | 1.01 |
| AAATTTAGAT | 0.965 |
| TCGGAATAAT | 1.11 |
| ATACAGAGTG | 1.03 |
| GGGTCACGGG | 1.04 |
| AAATCAGCGG | 1.01 |
| GGGGTTACTA | 1.02 |
| TGGCTATTCC | 1.03 |
| TGGCCTCGGT | 1.01 |
| TTCCGGACC | 1.12 |
| GAAGGGCAA | 1.01 |
| ACAATTAGCA | 1.07 |
| TCAGAGTAGA | 1.02 |
| ATATCATT | 0.968 |
| GTAAGTACCG | 1.11 |
| GGCGGATGGT | 1 |
| TAACGGAGCG | 1.53 |

| Sequence | switch fluorescence ratio |
| --- | --- |
| CGAGAAACGA | 1.03 |
| TGCGGCCCTG | 1 |
| TGAGAGAATA | 0.976 |
| AGCAGCGATT | 0.981 |
| GATTAGTACT | 0.973 |
| CCTCTGGGTT | 2.34 |
| TGTGGAATGA | 1.02 |
| AGTTTCATTT | 0.975 |
| AAAGTGGCAC | 1 |
| TCTTGGAAAC | 0.987 |
| CAATTCACCC | 1.1 |
| GATTGGGTGC | 1.02 |
| TTAAGACTTA | 1.01 |
| TGATGCGGGA | 1.01 |
| TCGGCCAA | 1.05 |
| CTGTATGCAG | 1.02 |
| GAAACCGACG | 2.29 |
| TGCCACCTGC | 0.977 |
| ATCAGTATT | 1.01 |
| TTAGTAAATA | 0.986 |
| CGTGGTGACT | 0.953 |
| TTTACATCGA | 1.05 |
| TTAACGCGCA | 1.06 |

| Sequence | switch fluorescence ratio |
| --- | --- |
| AGAAAACGGT | 0.946 |
| TTGGCATTGT | 0.976 |
| ATTAAACATT | 1.03 |
| GGACTGATTT | 0.991 |
| TTTCCACAGC | 1.51 |
| ACAACGTAAT | 1.07 |
| ACTGCCTCTC | 1.13 |
| ACTTCACAGG | 1.86 |
| CGAGGGGAAT | 1.06 |
| TCTTTTACA | 1.05 |
| CGTTATAG | 0.984 |
| CTCTCTATTG | 0.958 |
| TTTCGGTAAT | 1.01 |
| GTCCGGGCTT | 1.03 |
| CTGAAATGA | 1.02 |
| CGATACTGCA | 1.06 |
| CTACAAACGT | 1.38 |
| CCATTGTTTG | 0.995 |
| ATGATCGCCT | 1.03 |
